In PubChem BioAssay AID1460 (National Center for Advancing Translational Sciences (NCATS), 2008):
Out of some 270,000 compounds screened, about 5,800 (2.1%) were called active. Inconclusive means that the source gave no clear call. Such entries were picked first, then a sample of the others. Calls follow the shape of the dose curve; as a rule, active = well fitted inhibition curve with a large enough effect; inconclusive = small, poorly fitted or top-dose-only effect; inactive = flat fitted curve, though single readings scatter. Potencies beside an inconclusive call are fits to weak or partial responses and may not hold up.

target: Microtubule-associated protein tau (Homo sapiens) (UniProt P10636); experiment: qHTS for Inhibitors of Tau Fibril Formation, Thioflavin T Binding; details: recombinant tau K18 P301L (four-repeat tau fragment), heparin-induced fibrillization, ThT fluorescence; series mostly up to 57.4 µM; activity, negative = inhibition: at the top concentration; also: nearly all actives have a fitted effect of over 55% in size
UniProt P10636, sequence (P10636 whole entry, looked up, the tested form may be a part): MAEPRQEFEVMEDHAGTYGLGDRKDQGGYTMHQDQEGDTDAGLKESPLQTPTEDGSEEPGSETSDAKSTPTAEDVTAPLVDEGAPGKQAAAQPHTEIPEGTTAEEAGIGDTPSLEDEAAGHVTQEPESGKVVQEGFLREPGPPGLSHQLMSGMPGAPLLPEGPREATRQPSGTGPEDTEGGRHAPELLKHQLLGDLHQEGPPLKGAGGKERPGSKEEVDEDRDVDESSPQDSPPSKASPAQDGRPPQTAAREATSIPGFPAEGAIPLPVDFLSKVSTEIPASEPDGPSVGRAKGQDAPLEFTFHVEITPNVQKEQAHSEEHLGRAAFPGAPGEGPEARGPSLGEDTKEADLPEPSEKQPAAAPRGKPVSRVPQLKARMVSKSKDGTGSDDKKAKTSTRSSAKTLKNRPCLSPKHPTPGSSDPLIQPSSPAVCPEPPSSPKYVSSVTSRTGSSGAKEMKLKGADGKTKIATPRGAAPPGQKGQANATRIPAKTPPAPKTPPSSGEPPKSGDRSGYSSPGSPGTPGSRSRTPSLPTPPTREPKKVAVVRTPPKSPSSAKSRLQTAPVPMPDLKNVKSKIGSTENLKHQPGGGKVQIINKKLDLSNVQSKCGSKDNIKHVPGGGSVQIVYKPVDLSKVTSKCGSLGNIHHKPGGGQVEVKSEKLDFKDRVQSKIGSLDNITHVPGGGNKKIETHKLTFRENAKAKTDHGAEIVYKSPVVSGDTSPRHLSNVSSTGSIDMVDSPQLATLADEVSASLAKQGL
Method in brief: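 Heparin-induced fibrillization of the P301L-mutant K18 repeat-domain fragment of human tau was followed by ThT binding in quantitative high-throughput format.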
% is scaled to controls: 0 for no effect and ±100 for the full control effect; potency is read from the fitted curve at half-maximal effect; tags tell the direction and shape of the fitted curve.

| Structure (SMILES) | Potency | activity, negative = inhibition |
| --- | --- | --- |
| NS(=O)(=O)c1ccc(Nc2ccccc2)c([N+](=O)[O-])c1 | inconclusive: 28.2 µM [inhibitor, partial curve] | – |
| CCS(=O)(=O)NC(C)C(c1cccs1)N1CCN(c2ccc(F)cc2)CC1 (centres undefined) | inconclusive: 20 µM [inhibitor, single point] | – |
| COC(=O)c1ccc(N=NNc2cccc(Br)c2)cc1 | inconclusive: 15.8 µM [inhibitor, partial curve] | – |
| COC(=O)c1sc2nc(CSc3ccc(Br)cc3)[nH]c(=O)c2c1C | inconclusive: 10 µM [inhibitor, partial curve, poor fit] | – |
| O=C(CCS(=O)(=O)c1cc2c3c(c1)CCN3C(=O)CC2)NCc1ccc(F)cc1 | inconclusive: 25.1 µM [inhibitor, single point] | – |
| COc1ccc(C2NC(=O)C(C#N)=C(S)N2c2ccc(C)cc2)cc1OC (centres undefined) | active: 31.6 µM | – |
| COc1cc(C(=O)N2CCN(c3ccc([N+](=O)[O-])cc3)CC2)ccc1OCc1c(C)noc1C | inconclusive: 35.5 µM [inhibitor, partial curve] | – |
| CC(C)CCN1CCc2nc(COc3ccccc3)c3c(c2C1)COC(C)C3 (centres undefined) | – | inactive: -15.1% [at 11.5 µM] |
| CCc1ccc(OCc2nc(-c3ccccn3)no2)c(Br)c1 | inconclusive: 10 µM [inhibitor, partial curve] | – |
| CSc1ccc(S(=O)(=O)NCCOc2ccccc2C)cc1 | – | inactive: 5.76% |
| CC1(C)[C@@H](O)CC[C@]2(C)C3C(=O)C=C4C5C[C@@](C)(C(=O)O)CC[C@]5(C)CC[C@@]4(C)[C@]3(C)CC[C@@H]12 (some centres undefined) | inconclusive: 39.8 µM [inhibitor, single point] | – |
| CCC(=O)c1ccc(N2CCN(C(=O)Cc3ccccc3)CC2)c(F)c1 | inconclusive: 11.2 µM [inhibitor, partial curve] | – |
| COC(=O)[C@@]1(Cc2ccccc2)[C@H]2c3cc(C(=O)N(C)C)n(Cc4ccsc4Br)c3C[C@H]2CN1C(=O)c1ccccc1 | inconclusive: 39.8 µM [inhibitor, single point] | – |
| COC(=O)c1c(NC(=O)C2CC=CCC2C(=O)O)sc(C)c1C (centres undefined) | – | inactive: -8.77% |
| Cc1nc2ccc3nc(NC(=O)c4ccc5c(c4)OCCO5)sc3c2s1 | inconclusive: 0.708 µM [inhibitor, full curve] | – |
| CC(N)=Nc1ccc([N+](=O)[O-])cc1 | – | inactive: 3.28% |
| C#CCn1cc(/C=N/NC(=O)COc2cccc3cccnc23)c2ccccc21 | inconclusive: 10 µM [inhibitor, partial curve] | – |
| CCOC(=O)C(C)(C)N(Cc1cccc(C)c1)S(=O)(=O)c1ccc(Cl)c([N+](=O)[O-])c1 | inconclusive: 12.6 µM [inhibitor, partial curve] | – |
| Cc1cc(/C=C(/C#N)c2cccc(Cl)c2)c(C)n1C | inconclusive: 31.6 µM [inhibitor, single point] | – |
| Nc1ccc(-c2nc3cc(N)ccc3s2)cc1 | active: 14.1 µM | – |
| COC(=O)/C=C1/SC(=NC(=O)c2ccc(F)cc2)NC1=O | inconclusive: 11.2 µM [inhibitor, partial curve] | – |
| Cc1ccc(NC(=O)c2sc3nc(-c4ccc(F)cc4)cn3c2C)c(C)c1 | inconclusive: 1 µM [inhibitor, full curve, poor fit] | – |
| O=C(N/N=C/c1ccccc1O)c1cccc(C(F)(F)F)c1 | – | inactive: -2.57% |

| Structure (SMILES) | Potency | activity, negative = inhibition |
| --- | --- | --- |
| CC[n+]1ccc(C)c2cc(S(=O)C(F)(F)F)ccc21 (centres undefined) | inconclusive: 22.4 µM [inhibitor, partial curve] | – |
| CCOC(=O)C1CCN(C(=O)CSc2c3c(nc4ccc(Cl)cc24)CCCC3)CC1 | inconclusive: 2 µM [inhibitor, full curve] | – |
| CCCCn1c(CCC)nc([N+](=O)[O-])c1Sc1ccc(Cl)cn1 | inconclusive: 28.2 µM [inhibitor, single point] | – |
| C/C(=N\NC(=O)c1c[nH]c2ccccc12)c1ccccn1 | inconclusive: 3.16 µM [inhibitor, full curve] | – |
| COC(=O)NC(c1ccco1)C(C(C)=O)C(=O)OC (centres undefined) | inconclusive: 1.78 µM [inhibitor, partial curve] | – |
| O=C(Nc1cccc(NC(=O)c2ccc(-c3ccc(Br)cc3)o2)c1)c1ccco1 | inconclusive: 0.631 µM [inhibitor, full curve, poor fit] | – |
| COCCNC(=O)/C(C#N)=C/c1cccc(/C=C(\C#N)C(=O)NCCOC)c1 | – | inactive: 0.235% |
| CCC(=O)Nc1ccc2nc(SCC(=O)N3CCc4ccccc43)sc2c1 | inconclusive: 0.562 µM [inhibitor, full curve] | – |
| COCCN(C(=O)c1ccccc1)c1nnc(-c2cccnc2)s1 | inconclusive: 39.8 µM [inhibitor, single point] | – |
| Cc1ccc(C(=O)c2c(NC(=O)c3ccncc3)sc3c2CCCC3)cc1 | inconclusive: 25.1 µM [inhibitor, partial curve] | – |
| Cc1ccc2c(c1)c(N=Nc1cccc(C(=O)O)c1)c(O)n2C | active: 14.1 µM | – |
| C=CCNC(=S)Nc1cc(C)ccn1 | – | inactive: -6.11% |
| Nn1c(SCC(=O)Nc2nccs2)nncc1=O | inconclusive: 28.2 µM [inhibitor, single point] | – |
| Cc1ccccc1CNC(=O)c1ccc2[nH]c(C)c(C)c2c1 | inconclusive: 17.8 µM [inhibitor, single point] | – |
| CCCCN(C(=O)NC(=O)Nc1ccc(C)cn1)S(C)(=O)=O | – | inactive: -0.722% |
| CC(=O)N1CCN(c2nc(-c3ccco3)c3c(c2C#N)CC(C)(C)SC3)CC1 | inconclusive: 28.2 µM [inhibitor, partial curve, poor fit] | – |
| CCOC(=O)C1Cn2c(nc3c(c2=O)C2(CCCC2)Cc2ccccc2-3)S1 (centres undefined) | inconclusive: 39.8 µM [inhibitor, single point] | – |
| COC(=O)CN(c1cc(C(F)(F)F)ccc1Cl)S(C)(=O)=O | inconclusive: 14.1 µM [inhibitor, partial curve, poor fit] | – |
| CC1=NNC(=O)C1C(c1ccc(Cl)cc1)C(C#N)C#N (centres undefined) | – | inactive: -24.7% |
| CCOC(=O)/C(C#N)=C\c1cc(C)n(-c2ccccc2)c1C | inconclusive: 17.8 µM [inhibitor, partial curve] | – |
| CCC(=O)OC1(C)C(=O)C2=COC(c3ccc(OC)cc3)=CC2=C(Br)C1=O (centres undefined) | active: 15.8 µM | – |
| COc1ccc(N2CCN(C(=O)c3csc4ccccc34)CC2)cc1 | inconclusive: 14.1 µM [inhibitor, partial curve] | – |
| COc1ccc(Nc2ccnc(Nc3ccc(OC)cc3)n2)cc1 | inconclusive: 7.08 µM [inhibitor, partial curve] | – |

| Structure (SMILES) | Potency | activity, negative = inhibition |
| --- | --- | --- |
| S=c1[nH]nc(-c2ccccc2)n1/N=C/C=C/c1ccco1 | inconclusive: 25.1 µM [inhibitor, partial curve] | – |
| CO[C@@H]1[C@@H]2OP(=O)(O)OC[C@H]2O[C@H]1n1c(Sc2ccc(Cl)cc2)nc2c(N)ncnc21 | – | inactive: -13.8% |
| CC1CC(C)CN(CCOCCSc2ccc(Cl)cc2)C1 (centres undefined) | – | inactive: 8.74% |
| COc1ccc(COc2cc(-c3cccc(OC)c3)nc3ccc(NC(=O)c4ccc(OC)cc4)cc23)cc1 | inconclusive: 6.31 µM [inhibitor, single point] | – |
| CSCCC(NC(=O)c1cc(C)oc1C)C(=O)O (centres undefined) | – | inactive: -15% |
| O=C(CSc1n[nH]c(-c2ccccc2O)n1)N1CCCc2ccccc21 | – | inactive: -9.27% |
| CC(c1nc2ccccc2c(=O)[nH]1)N(C)CCOc1ccc(Cl)cc1 (centres undefined) | – | inactive: -15.3% |
| CC(=O)N1C(=O)/C(=C2\SC(=S)N(NC(=O)c3ccc(O)cc3)C2=O)c2ccccc21 | active: 25.1 µM | – |
| Cc1cc(S(=O)(=O)Nc2nc(CN3CCOCC3)nc3sc4c(c23)CCCC4)ccc1F | inconclusive: 28.2 µM [inhibitor, partial curve, poor fit] | – |
| CCc1ccc(NC(=O)C(=O)NCCN2CCN(C(=O)c3ccco3)CC2)cc1 | inconclusive: 7.08 µM [inhibitor, partial curve] | – |
| Cc1cc(C)cc(Nc2cc(C)nc3nc(-c4ccco4)nn23)c1 | inconclusive: 17.8 µM [inhibitor, partial curve] | – |
| Cc1ccc(-c2nc3c4ccccc4n(CC(=O)N4CCN(c5ccc(F)cc5)CC4)c(=O)n3n2)cc1 | – | inactive: -7.06% |
| COc1ccnc(NCc2ccc(Cl)cc2)c1C#N | – | inactive: 0.043% |
| C=CCc1ccc(OCC(O)COCC)c(OC)c1 (centres undefined) | – | inactive: -16.1% |
| Cc1nc2sccn2c(=O)c1S(=O)(=O)Nc1ccc(N2CCN(C(=O)C(C)C)CC2)cc1 | inconclusive: 22.4 µM [inhibitor, single point] | – |
| CCOC(=O)c1ccn(-c2nc(-c3cccc(OC)c3)cc(C(F)(F)F)n2)n1 | inconclusive: 39.8 µM [inhibitor, single point] | – |
| C[C@@H]1C[C@@H]([C@@H](C)CC2CC(=O)NC(=O)C2)C(=O)[C@@H](C)C1 | – | inactive: 0.825% |
| Cc1ccc(C(CC(=O)Nc2ccc(F)c(Cl)c2)N2Cc3ccccc3C2=O)cc1 (centres undefined) | – | inactive: 19.6% |
| O=C(/C=C/c1ccc(-c2cccc([N+](=O)[O-])c2)o1)N1CCOCC1 | inconclusive: 31.6 µM [inhibitor, partial curve] | – |
| COc1cc(/C(C)=N/NC(=O)c2ccc(CSc3nncn3C)cc2)cc(OC)c1OC | inconclusive: 22.4 µM [inhibitor, partial curve, poor fit] | – |
| Cc1cc(C)cc(N2C(=O)CCSC23C(=O)N(Cc2ccccc2)c2ccccc23)c1 (centres undefined) | inconclusive: 28.2 µM [inhibitor, single point] | – |
| O=C(CS)Nc1ccc2ccccc2c1 | active: 25.1 µM | – |
| COc1ccc(-c2nc(-c3ccccc3)c(-c3ccc(F)cc3)[nH]2)c(OC)c1C | inconclusive: 15.8 µM [inhibitor, partial curve] | – |
